Reference: PubChem BioAssay AID1671193 (National Center for Advancing Translational Sciences (NCATS), 2021)
Among all 150,000 compounds or so, about 180 (0.12%) were called active. Inconclusive results, whose numbers are uncertain, are shown with a selection of clear calls. Calls follow the shape of the dose curve; as a rule, active = well fitted cell-killing curve with a large enough effect; inconclusive = small, poorly fitted or top-dose-only effect, or effect the other way; inactive = flat fitted curve, though single readings scatter. Potencies of inconclusive entries are doubtful fits and often do not repeat.

Assay: GF-AFC viability counterscreen for inhibitors of alpha-synuclein gene (SNCA) expression; also: nearly all actives have a fitted effect of over 30% in size;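 as to activity change, negative = cytotoxicity: 0% = DMSO-treated cells and -100% = medium-only wells without cells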
Conditions: HEK-293-SNCA-luc viability, GF-AFC fluorescence, 24 h; activity change, negative = cytotoxicity: at 57.1 µM (top of the series) unless noted
In short: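 Cytotoxicity counterscreen: after 24 h compound treatment of genome-edited SNCA-luciferase HEK-293 cells, live-cell protease substrate GF-AFC read by fluorescence after 30 min; activity scaled between DMSO (0%) and medium-only (-100%), curves Hill-fitted.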
Potency is read from the fitted curve at half-maximal effect; tags tell the direction and shape of the fitted curve.

Q: Which Potency does the source give for `Cc1ccccc1CC(=O)N1CCN(C(=O)c2nnn3c2COC(c2ccc(Cl)cc2)C3)CC1` (centres undefined) here?
A: inactive

Q: Which Potency does the source give for `O=C(Nc1nc2n(n1)C(c1ccc(F)cc1)C=C(c1ccc(Cl)cc1)N2)c1ccco1` (centres undefined) here?
A: inconclusive: 28.2 µM [rising, single point]

Q: With `O=C(Cc1ccccc1Cl)N1CCC(Cc2nc(-c3ccccc3)no2)CC1` as the compound, how does the Potency read?
A: inactive

Q: For `CN(C)CCNC(=O)c1cc(-c2ccccc2F)cc2c1OCCN2Cc1cccnc1`, which Potency is on record?
A: inconclusive: 28.2 µM [cytotoxic, partial curve, poor fit]

Q: For `F[C@@H]1CN(CC2CC2)C[C@@H]1OCc1nc2ccccc2o1`, which Potency is on record?
A: inactive

Q: Which Potency does the source give for `O=C(C1CC1)N1CCOc2ccc(CN3CCc4ccccc4C3)cc2C1` here?
A: inactive

Q: With `COc1ccc(C(=O)NCC(c2cccnc2)N2CCN(c3ccc(F)cc3)CC2)cc1` (centres undefined) as the compound, how does the Potency read?
A: inconclusive: 28.2 µM [cytotoxic, single point]

Q: For `CCOC(=O)CN(Cc1ccccc1)C(C(=O)NC1CCCCC1)c1ccccc1` (centres undefined), which Potency is on record?
A: inconclusive: 28.2 µM [cytotoxic, single point]

Q: Which Potency does the source give for `O=c1c(-c2ccccc2)nc2cnc(N3CCOCC3)nc2n1Cc1cccs1` here?
A: inconclusive: 12.6 µM [rising, single point]

Q: For `Cc1ccc(C)c(C(=O)Nc2ccc3c(N4CCCC4)ncnc3c2)c1`, which Potency is on record?
A: inconclusive: 7.08 µM [cytotoxic, partial curve]

Q: With `COC(=O)[C@@H]1Cc2c([nH]c3ccccc23)[C@H]2C[C@@H](NCCN3CCOCC3)C[C@@H](c3ccccc3F)N21` as the compound, how does the Potency read?
A: active: 28.2 µM

Q: Which Potency does the source give for `O=C(c1ccc2c(c1)OCO2)N1CCN(c2cc(-c3ccc(Cl)cc3)[nH]n2)CC1` here?
A: inactive

Q: With `COC(=O)Cc1c(C)c2ccc3c(c2oc1=O)CN(Cc1ccc(Cl)cc1)CO3` as the compound, how does the Potency read?
A: inconclusive: 31.6 µM [rising, single point]

Q: Which Potency does the source give for `CCOC(=O)c1cc2c(=O)n3ccccc3nc2n(CC2CCCO2)c1=NC(=O)c1ccccc1OCC` (centres undefined) here?
A: inconclusive: 20 µM [rising, partial curve]

Q: For `O=C(N[C@H]1CO[C@H]2[C@@H]1OC[C@@H]2n1cc(CC2CCCCC2)nn1)c1ccc(C(F)(F)F)cc1`, which Potency is on record?
A: inconclusive: 31.6 µM [cytotoxic, partial curve, poor fit]

Q: For `COc1cccc(C(=O)N2CCC3(CC2)N(c2ccccc2)C(=O)CS3(=O)=O)c1`, which Potency is on record?
A: inconclusive: 8.91 µM [cytotoxic, single point]

Q: For `Cn1ccc(NC(=O)c2ccc3c(c2)NC(C)(CNCc2ccccc2)CO3)n1` (centres undefined), which Potency is on record?
A: inconclusive: 12.6 µM [cytotoxic, single point]

Q: With `COc1ccc(-c2nn(C)c3sc(C(=O)Nc4cc(OC)c(OC)c(OC)c4)cc23)cc1OC` as the compound, how does the Potency read?
A: inconclusive: 17.8 µM [cytotoxic, partial curve, poor fit]

Q: For `COc1ccccc1OCCCn1c(C2CC(=O)N(c3ccc(F)cc3)C2)nc2ccccc21` (centres undefined), which activity change, negative = cytotoxicity is on record?
A: inconclusive: 24.2%

Q: Which Potency does the source give for `CCOC(=O)c1cc2c(=O)n3ccccc3nc2n(CC2CCCO2)c1=NC(=O)c1ccc(OC)cc1OC` (centres undefined) here?
A: inconclusive: 25.1 µM [rising, partial curve]

Q: For `COc1cccc(C(=O)c2cn(CC(=O)NCCc3ccccc3)c3nc(C)ccc3c2=O)c1`, which Potency is on record?
A: inconclusive: 5.62 µM [cytotoxic, partial curve, poor fit]

Q: With `Cc1oc(-c2cccc(Cl)c2)nc1CN1CCCC(C(=O)N2CCN(c3ccc(F)cc3)CC2)C1` (centres undefined) as the compound, how does the Potency read?
A: inconclusive: 39.8 µM [rising, single point]

Q: With `COc1ccc(CN2CCc3nc(C(=O)NCc4cccc(F)c4)oc3CC2)cc1` as the compound, how does the Potency read?
A: inactive

Q: Which Potency does the source give for `COc1cccc(CNC(=O)C2(c3cccs3)CCOCC2)c1` here?
A: inconclusive: 0.891 µM [rising, full curve, poor fit]

Q: With `CCOC(=O)[C@H]1O[C@H]1C(=O)N[C@@H](CC(C)C)C(=O)NCCC(C)C` as the compound, how does the Potency read?
A: inconclusive: 27.1 µM [cytotoxic, partial curve, poor fit]

Q: With `CCC(=O)Nc1ccc2nc3c(=O)n(C)c(=O)n(C)c3nc2c1` as the compound, how does the Potency read?
A: inconclusive: 2.24 µM [rising, single point]

Q: For `O=C1NC(=NC2CCCCC2)C2(CCCN(CC3CC3)C2)N1c1cc(F)cc(F)c1` (centres undefined), which Potency is on record?
A: inactive

Q: Which Potency does the source give for `CC(C)c1noc(-c2ccccc2OCC(=O)Nc2ccccc2[N+](=O)[O-])n1` here?
A: inconclusive: 39.8 µM [cytotoxic, partial curve, poor fit]

Q: For `Cc1cc2c(-c3cccc(OC(C)C)c3)nc(-c3c(C)noc3C)cc2[nH]1`, which Potency is on record?
A: inconclusive: 56.2 µM [cytotoxic, single point]

Q: For `Cc1cc(F)ccc1NC(=O)Cn1c(C)cc2nc3n(c(=O)c21)CCCCC3`, which Potency is on record?
A: inconclusive: 39.8 µM [cytotoxic, single point]

Q: For `O=C(Nc1cccc(Cl)c1)c1ccc2nc(Cc3ccccc3)oc2c1`, which Potency is on record?
A: inconclusive: 5.62 µM [cytotoxic, full curve, poor fit]

Q: For `O=C(CCl)Nc1cccc(NC2=NS(=O)(=O)c3ccccc32)c1`, which Potency is on record?
A: active: 29.9 µM

Q: Which Potency does the source give for `CN1CCN(C(=O)c2cc(-c3ccc(Cl)cc3Cl)c3nncn3n2)CC1` here?
A: inconclusive: 1.12 µM [cytotoxic, full curve, poor fit]

Q: For `COc1ccc(-c2nc(CCNC(=O)c3cccs3)cs2)cc1OC`, which Potency is on record?
A: inconclusive: 39.8 µM [cytotoxic, single point]

Q: With `Cc1cc(C)c(CNC(=O)c2cc(-c3ccccc3)cc3c2OCCN3C(C)C)c(=O)[nH]1` as the compound, how does the Potency read?
A: inconclusive: 28.2 µM [cytotoxic, single point]

Q: With `Cc1ccc(NCc2cccn2-c2nnc(N3CCC(C(=O)NCCc4ccccc4)CC3)s2)cc1` as the compound, how does the Potency read?
A: inconclusive: 7.94 µM [rising, partial curve, poor fit]

Q: Which Potency does the source give for `O=C(NC1CC1)c1ccccc1OCC1CCCN(Cc2ccc(Br)o2)C1` (centres undefined) here?
A: inconclusive: 15.8 µM [cytotoxic, partial curve]

Q: For `COc1ccc(NC(=O)N[C@H]2CO[C@H]3[C@@H]2OC[C@H]3OC(=O)Nc2ccc(Oc3ccccc3)cc2)cc1`, which Potency is on record?
A: inactive

Q: For `COc1ccc(NC(=O)CSC2=Nc3ccccc3C3=NC(Cc4ccccc4)C(=O)N23)cc1Cl` (centres undefined), which Potency is on record?
A: inconclusive: 6.31 µM [cytotoxic, partial curve]
